The values below come from the supplement of paper PMC10037445.

Experiment [1] deals with RAW-Dual. The experiment is described as follows: IRF Lucia reporter activity, fold change vs agonist alone; higher = enhanced IRF activity. To be noted: agonist: MPLA (TLR4) […]. The essentials: (§1)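 RAW-Dual macrophages were seeded in DMEM at 50,000 cells/well in 384-well plates, given 50 nL of library stock by pin tool, and given a PRR agonist 1 h later. Plates were held at 37 °C, 5% CO2 for 20 hours, after which supernatant was read for IRF by QuantiLuc luminescence and for NF-κB by QuantiBlue absorbance at 620 nm. Reporter activity is expressed as fold change over wells that received agonist alone. A well was called cytotoxic when IncuCyte confluency fell below 70% of agonist controls in both mask sets.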

The subject of experiment [2] is RAW-Dual. The experiment is described as follows: IRF Lucia reporter activity, fold change vs agonist alone; cytotoxicity flag (confluency mask): not cytotoxic; higher = enhanced IRF activity. In outline:
as §1

Experiment [3] deals with RAW-Dual. The experiment is described as follows: IRF Lucia reporter activity, fold change vs agonist alone; cytotoxicity flag (confluency mask): cytotoxic (confluency <70% of control); higher = enhanced IRF activity. In outline:
as §1

[4] abbreviates: agonist: 3'3'-cGAMP (STING) 10 ug/mL.
Setting [5] is: library stock concentration (final ~1000-fold dilution): 10 mM, cytotoxicity flag (confluency mask): not cytotoxic.

In all, about 2,900 compounds were measured (“IRF Lucia reporter activity, fold change vs agonist alone”: median about 0.9, highest 2% from about 2.8 on). Some of the results follow.

Turning to `CC(C)(C)c1ccc(C(=O)CCCN2CCC(OC(c3ccccc3)c3ccccc3)CC2)cc1`, the “IRF Lucia reporter activity” value in experiment [1] (library stock concentration (final ~1000-fold dilution): 2 mM, cytotoxicity flag (confluency mask): not cytotoxic) was found to be 1.26.

For `CC(C)(C)c1ccc(C(=O)CCCN2CCC(OC(c3ccccc3)c3ccccc3)CC2)cc1` (library stock concentration (final ~1000-fold dilution): 2 mM), the “IRF Lucia reporter activity” value was 0.24 in experiment [2] (setting [4]) and 1.13 in experiment [2] (agonist: LPS (TLR4) 0.1 ug/mL). Take `NC(Cc1ccccc1)C(=O)O` (configuration not stated): in experiment [1] (library stock concentration (final ~1000-fold dilution): 2 mM water, cytotoxicity flag (confluency mask): not cytotoxic), the “IRF Lucia reporter activity” value was 1.24. Turning to `NC(Cc1ccccc1)C(=O)O` (configuration not stated) (library stock concentration (final ~1000-fold dilution): 2 mM water), the entries for the “IRF Lucia reporter activity” value in experiment [2] (setting [4]) and in experiment [2] (agonist: LPS (TLR4) 0.1 ug/mL) were 0.937 and 0.789, respectively. Consider `Cc1cc(N=Nc2ccc(S(=O)(=O)Nc3ccccn3)cc2)c(N)cc1O`, for which the “IRF Lucia reporter activity” value in experiment [1] (setting [5]) is 0.329. Consider `Cc1cc(N=Nc2ccc(S(=O)(=O)Nc3ccccn3)cc2)c(N)cc1O` (library stock concentration (final ~1000-fold dilution): 10 mM), for which the “IRF Lucia reporter activity” value in experiment [2] (setting [4]) was found to be 0.382; in experiment [2] (agonist: LPS (TLR4) 0.1 ug/mL), 0.293. Taken in the same sequence, the figures for `CC1(C)CC1C(=O)N/C(=C\CCCCSCC(N)C(=O)O)C(=O)O` (configuration not stated) (library stock concentration (final ~1000-fold dilution): 10 mM) were 1.03 and 0.852. `CC1(C)CC1C(=O)N/C(=C\CCCCSCC(N)C(=O)O)C(=O)O` (configuration not stated): the “IRF Lucia reporter activity” value in experiment [1] (setting [5]) was 1.04. With `CCOC(=O)C(CCc1ccccc1)NC(C)C(=O)N1Cc2ccccc2CC1C(=O)O.Cl` (configuration not stated) (library stock concentration (final ~1000-fold dilution): 10 mM), the “IRF Lucia reporter activity” value in experiment [2] (setting [4]) came out at 1; in experiment [2] (agonist: LPS (TLR4) 0.1 ug/mL), 1.01. Turning to `CCOC(=O)C(CCc1ccccc1)NC(C)C(=O)N1Cc2ccccc2CC1C(=O)O.Cl` (configuration not stated), the “IRF Lucia reporter activity” value in experiment [1] (setting [5]) worked out at 0.995. Regarding `COC(=O)Nc1ccc(-c2nc(N3CCOCC3)c3cnn(C4CCN(C(=O)OC)CC4)c3n2)cc1` (library stock concentration (final ~1000-fold dilution): 10 mM), the “IRF Lucia reporter activity” value in experiment [2] (setting [4]) was 0.78; in experiment [2] (agonist: LPS (TLR4) 0.1 ug/mL) it was 1.12. On to `COC(=O)Nc1ccc(-c2nc(N3CCOCC3)c3cnn(C4CCN(C(=O)OC)CC4)c3n2)cc1`, for which the “IRF Lucia reporter activity” value in experiment [1] (setting [5]) came to 0.843.

With `CS(=O)(=O)CCNCc1ccc(-c2ccc3ncnc(Nc4ccc(OCc5cccc(F)c5)c(Cl)c4)c3c2)o1.Cc1ccc(S(=O)(=O)O)cc1.Cc1ccc(S(=O)(=O)O)cc1`, the “IRF Lucia reporter activity” value in experiment [1] (setting [5]) turned out to be 1.28. Consider `CS(=O)(=O)CCNCc1ccc(-c2ccc3ncnc(Nc4ccc(OCc5cccc(F)c5)c(Cl)c4)c3c2)o1.Cc1ccc(S(=O)(=O)O)cc1.Cc1ccc(S(=O)(=O)O)cc1` (library stock concentration (final ~1000-fold dilution): 10 mM), for which the “IRF Lucia reporter activity” value in experiment [2] (setting [4]) worked out at 0.264; in experiment [2] (agonist: LPS (TLR4) 0.1 ug/mL), 3.36. On to `Nc1ccc(S(=O)(=O)Nc2cnc3ccccc3n2)cc1`, for which, in experiment [1] (library stock concentration (final ~1000-fold dilution): 10 mM water, cytotoxicity flag (confluency mask): not cytotoxic), the “IRF Lucia reporter activity” value is 1.27. Consider `Nc1ccc(S(=O)(=O)Nc2cnc3ccccc3n2)cc1` (library stock concentration (final ~1000-fold dilution): 10 mM water), for which the “IRF Lucia reporter activity” value in experiment [2] (setting [4]) is 1.33; in experiment [2] (agonist: LPS (TLR4) 0.1 ug/mL), 0.922. For `O=C1C(CCS(=O)c2ccccc2)C(=O)N(c2ccccc2)N1c1ccccc1` (configuration not stated), the “IRF Lucia reporter activity” value in experiment [1] (setting [5]) stood at 1.

Consider `O=C1C(CCS(=O)c2ccccc2)C(=O)N(c2ccccc2)N1c1ccccc1` (configuration not stated) (library stock concentration (final ~1000-fold dilution): 10 mM), for which the entries for the “IRF Lucia reporter activity” value in experiment [2] (setting [4]) and in experiment [2] (agonist: LPS (TLR4) 0.1 ug/mL) were 0.867 and 1.38, respectively. `NC(=O)OCC(COC(N)=O)c1ccccc1`: the “IRF Lucia reporter activity” value in experiment [1] (setting [5]) stood at 0.976. With `NC(=O)OCC(COC(N)=O)c1ccccc1` (library stock concentration (final ~1000-fold dilution): 10 mM), the “IRF Lucia reporter activity” value in experiment [2] (setting [4]) is 0.964; in experiment [2] (agonist: LPS (TLR4) 0.1 ug/mL), 0.998.

`Cl.Cl.O=C(O)COCCN1CCN(C(c2ccccc2)c2ccc(Cl)cc2)CC1` (configuration not stated) (library stock concentration (final ~1000-fold dilution): 10 mM): the “IRF Lucia reporter activity” value in experiment [2] (setting [4]) stood at 1.07; in experiment [2] (agonist: LPS (TLR4) 0.1 ug/mL), 0.745. With `Cl.Cl.O=C(O)COCCN1CCN(C(c2ccccc2)c2ccc(Cl)cc2)CC1` (configuration not stated), the “IRF Lucia reporter activity” value in experiment [1] (setting [5]) came to 1.01.

`OC(CC1c2ccccc2-c2cncn21)C1CCCCC1` (configuration not stated): the “IRF Lucia reporter activity” value in experiment [1] (setting [5]) was found to be 1.12.

On to `OC(CC1c2ccccc2-c2cncn21)C1CCCCC1` (configuration not stated) (library stock concentration (final ~1000-fold dilution): 10 mM), for which the “IRF Lucia reporter activity” value in experiment [2] (setting [4]) was 1.21; in experiment [2] (agonist: LPS (TLR4) 0.1 ug/mL), 1.18. In the case of `[O-][n+]1cccc(CO)c1`, the “IRF Lucia reporter activity” value in experiment [1] (setting [5]) amounted to 1.12. Turning to `[O-][n+]1cccc(CO)c1` (library stock concentration (final ~1000-fold dilution): 10 mM), the “IRF Lucia reporter activity” value in experiment [2] (setting [4]) turned out to be 1.12; in experiment [2] (agonist: LPS (TLR4) 0.1 ug/mL), 1.2. With `O=C1CCN(c2ccccc2)N1`, the “IRF Lucia reporter activity” value in experiment [1] (setting [5]) came out at 0.925. As for `O=C1CCN(c2ccccc2)N1` (library stock concentration (final ~1000-fold dilution): 10 mM), the “IRF Lucia reporter activity” value stood at 0.878 in experiment [2] (setting [4]) and 1.27 in experiment [2] (agonist: LPS (TLR4) 0.1 ug/mL). `CCC(=C(c1ccccc1)c1ccc(OCCN(C)C)cc1)c1ccccc1`: the “IRF Lucia reporter activity” value in experiment [1] (library stock concentration (final ~1000-fold dilution): 10 mM, cytotoxicity flag (confluency mask): cytotoxic (confluency <70% of control)) came to 1.07. Turning to `CCC(=C(c1ccccc1)c1ccc(OCCN(C)C)cc1)c1ccccc1` (library stock concentration (final ~1000-fold dilution): 10 mM), the “IRF Lucia reporter activity” value in experiment [3] (setting [4]) amounted to 0.478; in experiment [3] (agonist: LPS (TLR4) 0.1 ug/mL), 0.996. As for `C/C(=C\C(=O)Nc1ccccc1C(=O)O)c1ccc2ccccc2c1` (library stock concentration (final ~1000-fold dilution): 10 mM), the entries for the “IRF Lucia reporter activity” value in experiment [2] (setting [4]) and in experiment [2] (agonist: LPS (TLR4) 0.1 ug/mL) were 0.961 and 1.26, respectively.
